{"source": "PubChem BioAssay AID651791", "about": "(National Center for Advancing Translational Sciences (NCATS), 2012)", "note": "Inconclusive means that the source gave no clear call. Such entries were picked first, then a sample of the others. No potency is given beside an inconclusive call; the fits are too rough. Active and inactive are the calls of the source. Calls follow the shape of the dose curve; as a rule, active = well fitted inhibition curve with a large enough effect; inconclusive = small, poorly fitted or top-dose-only effect; inactive = no such curve, though single readings can be large or run the other way. Potency is read from the fitted curve at half-maximal effect; tags tell the direction and shape of the fitted curve.", "data": [{"experiment": "InCell qHTS Assay for Inhibitors of the mTORC1 Signaling Pathway in MEF (Tsc2-/-, p53-/-) Cells: Hit Validation; also: nearly all actives have a fitted effect of over 75% in size", "conditions": "phospho-rpS6 immunofluorescence, 24 h", "text": "The mammalian target of rapamycin (mTOR) is an intracellular serine/threonine kinase Aberrant regulation of mTOR signaling plays a causative role in a number of human diseases, including cancer, benign tumors such as lymphangioleiomyomatosis (LAM) and Tuberous Sclerosis Complex (TSC), and metabolic diseases such as diabetes and obesity. This project aims to identify inhibitors of ribosomal protein S6 (rpS6) phosphorylation. The phosphorylation of rpS6 is a key event downstream of mTOR activation. The assay uses a phospho-specific antibody of phospho-rpS6 to detect inhibitors of mTOR activation. Mutations in the Tsc1 and Tsc2 genes are the underlying genetic lesions responsible for TSC, causing constitutive activation of the mTORC1 pathway and leading to profound effects on cell metabolism. Aberrant metabolism in cancer has recently received significant attention as a target to develop therapeutic agents in the treatment of cancer.1 As Tsc2-/- cells have lost the ability to respond to energy and growth factor deprivation, these cells are unable to properly down regulate cellular biosynthetic processes in response to metabolic stress, and are thus extremely sensitive to glucose deprivation-induced death.2 A central goal of this project is to explore the unique cell survival and metabolic properties of cells with Tsc1 or Tsc2 by screening for compounds that selectively target the Tsc2-/- MEFs by screening both Tsc2-/- and WT MEF cell lines. We hope to better understand these aspects of TSC physiology in order to exploit them for therapeutic benefit. NIH Molecular Libraries Probe Production Centers Network [MLPCN] NIH Chemical Genomics Center [NCGC] MLPCN Grant: NS059428 Assay Submitter (PI): Blenis, John; Harvard University\nFor quantitative high throughput analysis of mTORC1 signaling, we developed a cell-based assay for immuno-fluorescence based detection of rpS6 phosphorylation on the Acumen Explorer that will be used a platform for the primary small molecule screen. Mouse embryonic fibroblasts (MEFs) are cultured in 1536-well plates using DMEM + 10% FBS. Twenty-four hrs after plating, test compounds (solubilized in DMSO) are delivered and incubated with the cells for 24 hrs at 37 degree Celsius. Following the incubation, media with compound is aspirated and the cells are fixed in 4% paraformaldehyde (PFA) containing PBS + 0.2% TX-100. Next, PFA is aspirated, cells are washed two times with PBS plus 0.2% TX-100 and the cells are blocked for 1 hr at room temperature (blocking buffer: LiCOR Blocking Buffer plus 0.2% TX-100). This is followed by aspiration and staining with Alexa-488 conjugated-phospho-rpS6 Ser235/236 antibody for 2 hours at room temperature (Cell Signaling Technology # 4803, 1:50 dilution in blocking buffer). Cells are washed two times with PBS plus 0.2% TX-100, and stained with 10 uM propidium iodide (PI) for 20-25 minutes for cell number measurement (1:500 dilution of Hoescht staining is also added for IN Cell imaging). The plates are scanned on the Acumen Explorer laser scanning instrument (TTP Labtech) using the 488nm laser for simultaneous excitation of the Alexa-488 and PI. The fluorescence emission from the Alexa-488 conjugated rpS6 phospho-235/236 antibody staining is selected using a […] band pass filter. Fluorescence emission from the PI stain is selected using a 575-640 nm band pass filter. The normalized phospho-S6 staining is calculated as the ratio of the integrated Alexa 488 intensity divided by the integrated PI intensity for the single concentration rapamycin control (7.5 nM) and DMSO columns. […] Inhibition of the pathway is defined based on the normalized phospho-S6 intensity in rapamycin treated cells. […]", "values": [{"smiles": "CCCCS(=O)(=O)c1oc(-c2cccs2)nc1S(=O)(=O)c1ccc(F)cc1", "Potency": "active: 3.29 µM"}, {"smiles": "CN1CCN(C2(CNC(=O)c3ccc(C(C)(C)C)cc3)CCCCC2)CC1", "Potency": "inconclusive [inhibitor, single point]"}, {"smiles": "CC(Nc1oc(-c2ccc(COc3ccccc3)o2)nc1C#N)c1ccccc1", "note": "(stereo not given)", "Potency": "inconclusive [inhibitor, single point]"}, {"smiles": "Cc1cc(C)c(NC(=O)Cn2c(=O)n(Cc3ccc(C(=O)NCc4ccc5c(c4)OCO5)cc3)c(=O)c3ccccc32)c(C)c1", "Potency": "active: 3.29 µM"}, {"smiles": "CCCCS(=O)(=O)c1oc(-c2ccc(F)cc2)nc1S(=O)(=O)c1ccc(C)cc1", "Potency": "active: 5.85 µM"}, {"smiles": "O=C(CCOc1ccccc1)N(Cc1cccnc1)c1nc2c(F)cccc2s1", "Potency": "inconclusive [inhibitor, single point]"}, {"smiles": "CCN(CC)CCn1c(=N)n(CCOc2ccccc2Cl)c2ccccc21", "Potency": "inconclusive [inhibitor, single point]"}, {"smiles": "CCSc1ccccc1C(=O)Nc1ccc(-c2nc3ccccc3s2)c(O)c1", "Potency": "inconclusive [inhibitor, single point]"}, {"smiles": "CCCCCOc1ccc(NC(=O)Cn2c(-c3cncs3)nc3ccccc32)cc1", "Potency": "inconclusive [inhibitor, single point]"}, {"smiles": "O=C(NCCc1nc2ccccc2n1Cc1ccc(Cl)cc1Cl)c1ccco1", "Potency": "inconclusive [inhibitor, single point]"}, {"smiles": "CCCN(CCC)CCNC(=O)C1CCN(c2nc3ccc(CC)cc3s2)CC1", "Potency": "inconclusive [inhibitor, single point]"}, {"smiles": "Cc1ccc2[nH]c(=O)c3cc(C(=O)NCCCN4CCC(C)CC4)sc3c2c1", "Potency": "inconclusive [inhibitor, single point]"}, {"smiles": "CC(C)(C)OC(=O)N1CCC(c2c(C(=O)NCCN3CCC(Cc4ccccc4)CC3)cnn2-c2cccc(Cl)c2)CC1", "Potency": "inconclusive [inhibitor, single point]"}, {"smiles": "COc1ccc(NC(=O)c2nc(S(=O)(=O)Cc3ccc(C)cc3)ncc2Cl)cc1", "Potency": "inconclusive [inhibitor, single point]"}, {"smiles": "CCOC(=O)c1c(C)[nH]c(CCC(=O)NCCCN2CCN(c3cc(C)ccc3C)CC2)c1C", "Potency": "inconclusive [inhibitor, single point]"}, {"smiles": "CCOC(=O)Cn1c(=O)c2c(nc(N3CCOCC3)n2Cc2ccccc2)n(C)c1=O", "Potency": "active: 11.7 µM"}, {"smiles": "CCc1nnc(NC(=O)c2nc(S(=O)(=O)Cc3cccc(C)c3)ncc2Cl)s1", "Potency": "active: 4.14 µM"}, {"smiles": "CCCCOc1ccc(CN2C(=O)C(=O)c3cc(Br)cc(C)c32)cc1OC", "Potency": "inconclusive [inhibitor, single point]"}, {"smiles": "CCCS(=O)(=O)c1ncc(Cl)c(C(=O)Nc2c(C(=O)Nc3ccccc3)oc3ccccc23)n1", "Potency": "active: 2.33 µM"}, {"smiles": "CCCN(CCC)CC(O)Cn1cc(/C=C/C(=O)c2ccc(OC)cc2)c2ccccc21", "note": "(stereo not given)", "Potency": "inconclusive [inhibitor, single point]"}, {"smiles": "Cc1cc(C)cc(Nc2cc(C(=O)NCCCN(C)C3CCCCC3)c3ccccc3n2)c1", "Potency": "inconclusive [inhibitor, single point]"}, {"smiles": "CCc1ccc(NC(=O)C2CCCN(S(=O)(=O)c3c(C)noc3/C=C/N(C)C)C2)cc1", "note": "(stereo not given)", "Potency": "active: 14.7 µM"}, {"smiles": "COc1ccc(NC(=O)c2c(C)oc3ccc(O)c(CN4CCCC(C)C4)c23)cc1Cl", "note": "(stereo not given)", "Potency": "inconclusive [inhibitor, single point]"}, {"smiles": "Cc1ccc(NC(=O)NCC2CCN(Cc3cccc(Cl)c3)CC2)cc1Cl", "Potency": "inconclusive [inhibitor, single point]"}, {"smiles": "CCCCNC(=O)CSc1c2c(nc3ccc(Cl)cc13)CCCC2", "Potency": "inconclusive [inhibitor, single point]"}, {"smiles": "CCc1ccc(C(=O)c2cnc3ccc(F)cc3c2S(=O)(=O)c2ccccc2)cc1", "Potency": "inconclusive [inhibitor, single point]"}, {"smiles": "CC(=O)Nc1ccc(NC(=O)c2nc(S(=O)(=O)Cc3ccc(F)cc3)ncc2Cl)cc1", "Potency": "active: 3.29 µM"}, {"smiles": "CCN(CC)CCn1c(=N)n(CC(O)COc2ccccc2C)c2ccccc21", "note": "(stereo not given)", "Potency": "inconclusive [inhibitor, single point]"}, {"smiles": "Cc1ccc(OCC(O)Cn2c(=N)n(CCN3CCCCC3)c3ccccc32)cc1", "note": "(stereo not given)", "Potency": "active: 16.5 µM"}, {"smiles": "CCCCN(C)CCNC(=O)C1CCN(c2nc3ccc(CC)cc3s2)CC1", "Potency": "inconclusive [inhibitor, single point]"}, {"smiles": "CCN(CC)CCCNc1sc(S(=O)(=O)c2ccccc2)nc1S(=O)(=O)c1ccc(Cl)cc1", "Potency": "inconclusive [inhibitor, single point]"}, {"smiles": "O=C(Cn1c(=O)c2ccccc2n(CC(=O)Nc2ccc(Cl)cc2)c1=O)NCCc1ccccc1", "Potency": "inconclusive [inhibitor, single point]"}, {"smiles": "Cc1ccc(CN2C(=O)C(O)(CC(=O)c3ccc(C)cc3)c3ccccc32)cc1", "note": "(stereo not given)", "Potency": "inconclusive [inhibitor, partial curve]"}, {"smiles": "CCCOCc1cc(CN2CCN(c3ccccc3OC)CC2)c(O)c2ncccc12", "Potency": "active: 11.7 µM"}, {"smiles": "CCCc1oc2ccc(NS(=O)(=O)c3ccc(OC)cc3)cc2c1C(=O)OCC", "Potency": "inconclusive [inhibitor, single point]"}, {"smiles": "COc1ccc(CC(=O)Nc2sc3c(c2C(=O)Nc2ccccc2)CCCCC3)cc1", "Potency": "inconclusive [inhibitor, single point]"}, {"smiles": "Cc1ccc(C(=O)/C=C/c2cn(CC(O)CN3CCCCCC3)c3ccccc23)cc1", "note": "(stereo not given)", "Potency": "inconclusive [inhibitor, single point]"}, {"smiles": "Cc1ccc(-c2nc3ccccc3[nH]2)cc1NC(=O)COc1ccccc1[N+](=O)[O-]", "Potency": "inconclusive [inhibitor, single point]"}, {"smiles": "CC(=O)Nc1cccc(-c2nnc(SCC(=O)c3cc([N+](=O)[O-])ccc3Br)o2)c1", "Potency": "inconclusive [inhibitor, single point]"}, {"smiles": "Cc1cccc(CS(=O)(=O)c2ncc(Cl)c(C(=O)Nc3nnc(C(C)C)s3)n2)c1", "Potency": "active: 13.1 µM"}]}]}
